Measured values reported in PubChem BioAssay (NCI).
Values joined by “and” are separate entries in the source; they are usually repeats but may differ in a detail not shown here. Equal entries are not always repeated.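 Following 48 hours of exposure in 96-well plates, responses at five concentrations were used to interpolate endpoints linearly. Here, GI50 denotes the concentration required for 50% inhibition of growth. TGI: concentration producing complete growth inhibition.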 Square brackets hold non-standard residues; d marks the D form. Peptide text beside a SMILES is read from it. Phe(4-Cl) = N[CH](Cc1ccc(Cl)cc1)C(=O)O

Test system: NCI-H322M lung
Assay: growth of human tumour cells (NCI), 48 h

Compound | TGI | GI50 [µM]
Cc1ccc(S(=O)(=O)NC(=O)NCc2ccc(S(N)(=O)=O)cc2)cc1 | > 100 µM | –
O=C(O)CN(c1ccccc1)S(=O)(=O)c1ccccc1[N+](=O)[O-] | > 100 µM | –
CN(C)P(=O)(/C(N)=N/Nc1ccc([N+](=O)[O-])cc1)N(C)C | > 100 µM | –
O=C(/C=C/c1cccc([N+](=O)[O-])c1)N1CCN(CCOC(c2ccccc2)c2ccccc2)CC1 | > 100 µM | –
CC1=NN(c2cccc(S(=O)(=O)O)c2)C2(C1)C(Cl)C(=O)N2c1nc2ccccc2s1 (stereo unspecified) | 26.6 µM | –
COc1cc(C(=O)NNC(=O)c2cc(Br)ccc2NC(=O)c2cccs2)cc(OC)c1OC | > 100 µM | –
COc1cc(NC(=O)c2cc(O)c(CC=C(C)C)c(O)c2)cc2c1O[C@]1(C)CC[C@@H](O)C(C)(C)[C@H]1C2 | 47.9 µM | 11.7
Cc1cc(C)nc(NS(=O)(=O)c2ccc(Nc3c4ccccc4nc4c(C(=O)Nc5ccc(S(=O)(=O)Nc6cc(C)on6)cc5)cccc34)cc2)n1 | 59.3 µM | –
O=C(c1cccc(O)c1O)c1cn(Cc2ccc(F)cc2)c2cccc(O)c12 | 23.5 µM | 7.15
COc1ccc(OC)c(/C=C/C(=O)N/N=C/c2ccc(Cl)cc2)c1 | > 100 µM | 0.511
CN/N=C(/CCN1CCCC1)CC(c1ccccc1)c1c(O)c2ccccc2oc1=O (stereo unspecified) | > 100 µM | –
CCOC(=O)C(Cc1ccc2ccccc2c1)(Cc1ccc2ccccc2c1)C(C)=O | > 10 µM | –
Cc1cc(S(=O)(=O)Nc2nc(N)nc(N3N=CCC3C)n2)c(SCC(=O)O)cc1Cl (stereo unspecified) | > 10 µM | –
CCOc1cccc(C=Nc2ccccc2SSc2ccccc2N=Cc2cccc(OCC)c2O)c1O | 29.5 µM | –
C[C@]12CCC(O)CC1=CC[C@@H]1[C@@H]2CC[C@]2(C)C(O)[C@H](n3ccnc3)C[C@@H]12 (stereo partly specified) | > 100 µM | –
COc1cc(C2C3=C(COC3=O)OC(C)(C)Oc3cc4c(cc32)OCO4)cc(OC)c1O (stereo unspecified) | > 100 µM | –
CC(=O)OCC(OC(C)=O)C1C[C@H]2O[C@@H]3[C@H](C[C@H]2O1)O[C@@]1(C[C@@H]3C)C[C@H](C)[C@@H]2O[C@]3(C[C@@H]2O1)C[C@H]1O[C@H]2[C@H](C)[C@H]4OC(=O)C[C@H]5CC[C@@H]6OC7[C@H]8O[C@]9(CC[C@H]%10CC(=O)[C@H](CC[C@H]%11C[C@@H](C)C(=O)C(C[C@@H]4O[C@H]2C[C@H]1O3)O%11)O%10)CC8O[C@@H]7[C@@H](O9)[C@H]6O5 (stereo partly specified) | 0.0102 µM | –
COC(=O)/C(C)=N/NC(=S)SC | > 100 µM | –
O=S(=O)(/N=S(/Nc1ccccc1)C(Cl)Cl)c1ccccc1 (stereo unspecified) | > 100 µM | –
NC(=O)NC1NC(=O)NC1=O (stereo unspecified) | > 100 µM | –
Cc1nc2ccccc2c(=O)n1NC(=O)c1ccccn1 | > 100 µM | –
CC(=O)OC1=NN=C2COC(c3ccccc3OC(C)=O)=NN2C1 | > 50 µM | –
COc1cc2c(/C=C3/C(=O)Nc4ccc(O)cc43)c(Cl)n(Cc3ccccc3)c2cc1C | 31.9 µM | –
CC(O)C(NC(=O)C(Cc1ccccc1)NC(=O)C(NC(=O)C(CCCCN)NC(=O)C(Cc1c[nH]c2ccccc12)NC(=O)C(Cc1ccc(O)cc1)NC(=O)C(Cc1ccc(Cl)cc1)NC(=O)C(N)Cc1ccccc1)C(C)O)C(N)=O (stereo unspecified) (H-F[Phe(4-Cl)]YWKTFT-NH2; configuration not given here) | 34.3 µM | –

Compound | TGI | GI50 [µM]
CCC1(O)C(=O)OCc2c1cc1n(c2=O)Cc2cc3ccc(C=O)cc3nc2-1 (stereo unspecified) | 31.6 µM and 28.7 µM | 5.53
CCCCCCCC(CC(=O)NC(CO)C(=O)NC(CO)CC(C)C)OC(=O)CC(CCCCCCC)OC(=O)CC(CCCCCCC)OC1OC(C)C(O)C(OC2OC(C)C(O)C(OC(C)=O)C2O)C1O (stereo unspecified) | 26.5 µM | –
CCOC(=O)Sc1ncnc2nc[nH]c12 | > 100 µM | 4.86
Cn1c(-c2cccs2)cc(-c2cccs2)c1-c1cccs1 | > 100 µM | –
O=C(O)CP(=S)(S)c1ccccc1 (stereo unspecified) | > 100 µM | –
O=C1c2ccccc2C(=O)C2NC(CCCCCSSCCCCCC3=NC4C(=O)c5ccccc5C(=O)C4N3)=NC12 (stereo unspecified) | > 100 µM | –
Cc1ccc2nc3c(C(=O)NCCN(C)C)cccc3nc2c1 | 21.1 µM | –
COc1cccc(Nc2nc(C)c([N+](=O)[O-])c(Nc3cccc(OC)c3)n2)c1 | > 100 µM | –
COc1cc2c(cc1C)NC(=O)/C2=C/c1cccnc1 | 41 µM | –
O=[N+]([O-])/C(C(Cl)=C(Cl)Cl)=C1\Nc2ccc([N+](=O)[O-])cc2N1 | > 100 µM | –
CC1=CC[C@H](C[C@H](C#CCCCC2OCCO2)O[Si](C(C)C)(C(C)C)C(C)C)C(=O)CC1 | > 100 µM | –
Cc1ccc2c(c1)C(=O)C1(C2)Cc2c(C)cccc2C1=O (stereo unspecified) | > 100 µM | –
Cc1cc(C)c(C(=O)CC(=O)c2cccnc2)c(C)c1 | > 100 µM | 9.02
CC(C)c1ccc(C(=O)Nc2sc3c(c2C(N)=O)CCC(=O)C3)cc1 | 18.5 µM | 3
CN(C)CCCn1c2c(c3ccccc3c1=O)C(=O)c1ccccc1-2 | 7.82 µM | 2.87
CC(=O)OC1Oc2ccccc2-c2oc(=O)c(-c3cc4ccc(N(C)C)cc4oc3=O)cc21 (stereo unspecified) | 41 µM | 13.6
Cc1noc(C)c1CCCOC1COc2ccccc2OCCOCCOc2ccccc2OC1 | > 100 µM | –
Cc1cn(C2OC(CO[Si](C)(C)C(C)(C)C)/C(=C\C#N)C2O[Si](C)(C)C(C)(C)C)c(=O)[nH]c1=O (stereo unspecified) | > 100 µM | –
C=CC(C)(C)n1cc(C2=C3OC(=O)C(c4cn(C(C)(C)C=C)c5ccccc45)=C3OC2=O)c2ccccc21 | > 100 µM | –
NCC(Cl)C(O)c1cnc(N)[nH]1 (stereo unspecified) | > 25 µM | –
CCC(C)C(=O)OC1C(=O)OC2CC3C(C)=CC(=O)C(O)C3(C)C3C4(O)OCC23C1C(C)C4O (stereo unspecified) | 3.22 µM | –
CC(NC(=O)OCc1ccccc1)NC(=O)OC(C)(C)C (stereo unspecified) | > 100 µM | –
O=C(O)CC1OCC=C2CN3CCC45c6ccccc6NC4C1C2CC35 (stereo unspecified) | > 100 µM | –
